Measurements published in the antibiotic and cytotoxicity screens of Wong et al. (2023).
The list shows a part of the results.

The compounds below were run on HSkMC (human skeletal muscle cells) (assay: cytotoxicity call (relative viability < 0.9)). Settings: 10 µM.
In the case of Cc1noc(C)c1S(=O)(=O)Nc1cccc2c1O[C@H](CN(C)C(=O)NC(C)C)[C@H](C)CN([C@H](C)CO)C2=O, the cytotoxicity call was “inactive”.
For COc1ccc(NC(=O)N(C)C[C@H]2OCCCC[C@@H](C)Oc3ccc(NS(=O)(=O)c4ccc(OC)cc4)cc3C(=O)N([C@H](C)CO)C[C@@H]2C)cc1, the cytotoxicity call was “inactive”.
In the case of Cc1cc(C(=O)Nc2cccc3c2O[C@H](CN(C)C(=O)Nc2ccc4c(c2)OCO4)[C@@H](C)CN([C@@H](C)CO)C3=O)n(C)n1, the cytotoxicity call was “inactive”.
For C[C@H](CO)N1C[C@H](C)[C@H](CN(C)Cc2ccc3c(c2)OCO3)Oc2ccc(NC(=O)CCCN(C)C)cc2C1=O, the cytotoxicity call was “inactive”.
In the case of C[C@H](CO)N1C[C@H](C)[C@H](CN(C)Cc2ccc3c(c2)OCO3)OCCCC[C@H](C)Oc2ccc(NC(=O)Nc3ccc4c(c3)OCO4)cc2C1=O, the cytotoxicity call was “inactive”.
For Cc1cccc(Nc2ccncc2S(=O)(=O)NC(=O)NC(C)C)c1, the cytotoxicity call was “inactive”.
CC(C)NC(=O)N(C)C[C@H]1Oc2cc(C#Cc3ccccn3)ccc2S(=O)(=O)N([C@@H](C)CO)C[C@H]1C was tested, and the cytotoxicity call was “inactive”.
In the case of C[C@@H]1CN([C@H](C)CO)C(=O)Cc2cc(NC(=O)C3CC3)ccc2O[C@H]1CN(C)S(=O)(=O)c1ccc(F)cc1, the cytotoxicity call was “inactive”.
C[C@@H]1COC(=O)[C@@H](NC(=O)OCC2c3ccccc3-c3ccccc32)CC=CC[C@H](CC(=O)NCCO)C(=O)N1 was tested, and the cytotoxicity call was “inactive”.
For O=C(O)C[C@@H]1CC[C@@H]2[C@H](COC[C@@H](O)CN2S(=O)(=O)c2ccc(F)cc2)O1, the cytotoxicity call was “inactive”.
C[C@H](CO)N1C[C@H](C)[C@H](CN(C)S(=O)(=O)c2cccc(F)c2)Oc2cc(C#CCN(C)C)ccc2S1(=O)=O was tested, and the cytotoxicity call was “inactive”.
For COc1ccc([C@@H]2CC=CC[C@H](C)Oc3ccccc3C(=O)N(C)[C@H](Cc3ccccc3)C(=O)N2)c(OC)c1, the cytotoxicity call was “inactive”.
With C[C@@H]1CN([C@H](C)CO)C(=O)c2cc(NC(=O)c3ccccc3)ccc2O[C@@H](C)CCCCO[C@@H]1CN(C)CC1CCCCC1 the cytotoxicity call was “inactive”.
With COc1ccc(CN(C)C[C@@H]2OCCCC[C@@H](C)Oc3ccc(NC(=O)NC(C)C)cc3C(=O)N([C@@H](C)CO)C[C@H]2C)cc1 the cytotoxicity call was “inactive”.
For O=C(C[C@@H]1C[C@@H]2c3cc(NC(=O)NC4CCCC4)ccc3O[C@@H]2[C@H](CO)O1)NCCN1CCCCC1, the cytotoxicity call was “inactive”.
With O=C([C@H]1[C@H](CO)[C@H]2Cn3c(cccc3=O)[C@@H]1N2CC1CCCC1)N1CCOCC1 the cytotoxicity call was “inactive”.
For NNC(=O)COc1ccccc1, the cytotoxicity call was “inactive”.
For O=C(Nc1cccc2cccnc12)[C@@H]1[C@H](c2ccc3ccccc3c2)CC(=O)N1C(=O)OCc1ccccc1, the cytotoxicity call was “inactive”.
For C[C@H]1CN([C@@H](C)CO)S(=O)(=O)c2ccc(C#CC3(O)CCCC3)cc2O[C@@H]1CN(C)C(=O)Nc1ccc(F)cc1, the cytotoxicity call was “inactive”.
For C[C@@H]1CN([C@H](C)CO)C(=O)Cc2cc(NC(=O)Nc3ccc(C(F)(F)F)cc3)ccc2O[C@H]1CN(C)C(=O)Nc1ccccc1, the cytotoxicity call was “inactive”.
For COc1ccc(S(=O)(=O)N[C@H]2CC[C@H](CCNC(=O)CN3CCOCC3)O[C@@H]2CO)cc1, the cytotoxicity call was “inactive”.
For C[C@@H]1CN([C@@H](C)CO)C(=O)c2cc(NS(=O)(=O)c3cn(C)cn3)ccc2O[C@H]1CN(C)S(=O)(=O)c1ccccc1, the cytotoxicity call was “inactive”.
In the case of C[C@@H]1CN([C@@H](C)CO)C(=O)Cc2cc(NC(=O)Cn3cnnn3)ccc2O[C@H]1CN(C)CC1CCCCC1, the cytotoxicity call was “inactive”.
In the case of COC(=O)[C@@H](N)c1cccc(Cl)c1, the cytotoxicity call was “inactive”.
COc1ccc(C#Cc2cnc3c(c2)C(=O)N([C@H](C)CO)C[C@H](C)[C@@H](CN(C)CC2CCOCC2)O3)cc1 was tested, and the cytotoxicity call was “inactive”.
For C[C@@H]1CN([C@H](C)CO)C(=O)c2cc(NS(=O)(=O)c3cn(C)cn3)ccc2O[C@@H](C)CCCCO[C@H]1CN(C)C(=O)Nc1ccc(C(F)(F)F)cc1, the cytotoxicity call was “inactive”.
With COC(=O)CNC(=O)c1ccc(S(=O)(=O)N2CCOCC2)cc1 the cytotoxicity call was “inactive”.
CCC(=O)N(C)C[C@H]1Oc2ncc(C#C[C@@H](C)O)cc2C(=O)N([C@@H](C)CO)C[C@H]1C was tested, and the cytotoxicity call was “inactive”.
COCCNC(=O)C[C@@H]1C[C@H]2c3cc(NS(C)(=O)=O)ccc3O[C@H]2[C@@H](CO)O1 was tested, and the cytotoxicity call was “inactive”.
Cc1noc(C)c1NC(=O)Nc1ccc2c(c1)C(=O)N([C@H](C)CO)C[C@H](C)[C@@H](CN(C)Cc1ccncc1)OCCCC[C@@H](C)O2 was tested, and the cytotoxicity call was “inactive”.
Nc1ncnc2c1ncn2[C@@H]1O[C@H](CO)C[C@H]1O was tested, and the cytotoxicity call was “inactive”.
In the case of CN(C)CCCNC(=O)C[C@@H]1CC[C@@H]2[C@H](COC[C@@H](O)CN2C(=O)Nc2cc(Cl)cc(Cl)c2)O1, the cytotoxicity call was “inactive”.
In the case of C[C@@H]1CCCCO[C@@H](CN(C)S(=O)(=O)c2ccc(Cl)cc2)[C@H](C)CN([C@@H](C)CO)C(=O)c2cc(NC(=O)Nc3ccccc3)ccc2O1, the cytotoxicity call was “inactive”.
In the case of O=C1CNc2cc(C(=O)O)ccc2N1, the cytotoxicity call was “inactive”.
For C[C@@H]1CCCCO[C@@H](CN(C)CC2CCCCC2)[C@H](C)CN([C@H](C)CO)C(=O)c2cc(NS(=O)(=O)c3ccc(F)cc3)ccc2O1, the cytotoxicity call was “inactive”.
CCC(=O)n1ccc(C(=O)N2CCOCC2)n1 was tested, and the cytotoxicity call was “inactive”.
With C[C@H](CO)N1C[C@H](C)[C@@H](CN(C)Cc2ccc(Oc3ccccc3)cc2)Oc2c(NS(=O)(=O)c3ccccc3)cccc2C1=O the cytotoxicity call was “inactive”.
With O=C(Cc1ccccn1)NCC[C@H]1CC[C@@H](NC(=O)CN2CCOCC2)[C@H](CO)O1 the cytotoxicity call was “inactive”.
With C[C@@H]1CCCCO[C@H](CN(C)Cc2ccccc2)[C@H](C)CN([C@H](C)CO)C(=O)c2cc(NS(=O)(=O)c3ccc(F)cc3)ccc2O1 the cytotoxicity call was “inactive”.
For Cc1noc(C)c1S(=O)(=O)N(C)C[C@@H]1OCc2cn(nn2)CCCC(=O)N([C@H](C)CO)C[C@@H]1C, the cytotoxicity call was “inactive”.
